PubChem BioAssay AID493208 (National Center for Advancing Translational Sciences (NCATS), 2011)
About 340 (0.77%) of roughly 44,000 compounds were called active. Inconclusive results (about 5%) are left out. Calls come from the whole dose curve; as a rule, active = well fitted inhibition curve with a large enough effect; inconclusive = small, poorly fitted or top-dose-only effect; inactive = flat fitted curve, though single readings scatter. The list shows a part of the results.

Experiment: Acumen qHTS Assay for Inhibitors of the mTORC1 Signaling Pathway in MEF (Tsc2-/-, p53-/-) Cells: Sytravon;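 note: plate controls were DMSO for no effect and rapamycin for full effect; nearly all actives have a fitted effect of over 50% in size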
Details: phospho-rpS6 immunofluorescence/PI, 24 h; series mostly up to 38.3 µM; activity change, negative = inhibition: at the top concentration
Outline: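 Immunofluorescence of rpS6 phosphorylation in Tsc2-/-, p53-/- MEFs after 24 h compound exposure, normalized to propidium iodide signal. Activity is expressed as % positive cells, thresholded with 7.5 nM rapamycin.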

| SMILES | activity change, negative = inhibition |
| --- | --- |
| O=C(CCCCn1c(=O)c2ccccc2n(CC(=O)Nc2cccc(C(F)(F)F)c2)c1=O)NCc1ccc2c(c1)OCO2 | inactive: -10.7% |
| CCc1nn2c(-c3ccccc3OC)ccnc2c1-c1ccccc1 | inactive: 14.2% |
| Cc1ccccc1NC(=O)c1ccc(F)c(S(=O)(=O)N2CCN(c3ccccc3F)CC2)c1 | inactive: -0.649% |
| COc1ccc(-c2nc(CSc3nncn4c3cc3oc(C)cc34)c(C)o2)cc1 | inactive: -1.59% |
| Cc1ccc(Cl)cc1NC(=O)COC(=O)CC(C)(C)CC1=NS(=O)(=O)c2ccccc2N1 | inactive: -19% |
| O=C(NCCc1ccccc1)C(=O)NCC(c1ccco1)S(=O)(=O)c1cccs1 (configuration not stated) | inactive: -6.05% |
| Cc1ccc(-n2nnc(-c3nc(-c4cccs4)no3)c2N)cc1C | inactive: 6.6% |
| CCOC(=O)c1ccccc1NC(=O)CN1CCCN(Cc2cc(C)ccc2C)S1(=O)=O | inactive: -4.08% |
| COc1cc(NC(=O)CN2C(=O)c3ccccc3Sc3ccc(C(=O)N4CCCC4)cc32)cc(OC)c1 | inactive: -3.16% |
| COc1ccc(OC)c(CCNC(=O)c2ccc3c(c2)c(C)c(C)n3Cc2ccccc2)c1 | inactive: 7.21% |
| CCOC(=O)c1[nH]c2ccccc2c1NC(=O)c1ccccc1F | inactive: 4.21% |
| Cc1oc2ncnc(N3CCCCC3)c2c1C(=O)NCC1CCN(Cc2cccc(F)c2)CC1 | inactive: -22.8% |
| CCN1CCN(CCCNC(=O)CS(=O)(=O)Cc2nc(-c3cccc(OC)c3)oc2C)CC1 | inactive: -11.4% |
| CCC(C)NS(=O)(=O)c1ccc(N2CCCCS2(=O)=O)cc1 (configuration not stated) | inactive: 4.15% |
| COc1ccc(C)cc1NC(=O)C1CCCN(S(=O)(=O)c2ccc3c(c2)CCCN3C(C)=O)C1 (configuration not stated) | inactive: -4.52% |
| Cc1ccc(C(=O)Nc2ccc(C(=O)O)cc2)cc1S(=O)(=O)Nc1ccccc1 | inactive: -1.08% |
| Cc1ccc(-n2c3c(c(=O)[nH]c2=O)C(NS(=O)(=O)c2ccc(Cl)cc2)(C(F)(F)F)C(=O)N3)cc1 (configuration not stated) | inactive: 2.88% |
| Fc1cccc(NCc2ccccc2-c2nnc(-c3ccccc3Cl)o2)c1 | inactive: -12% |
| NC(=O)C1CCN(c2ncnc3c2cnn3-c2ccccc2)CC1 | inactive: -5.46% |
| O=c1c2oc3ccccc3c2n(Cc2ccc(Cl)cc2)c(=O)n1Cc1ccc2c(c1)OCO2 | inactive: -1.07% |
| CCC(CC)C(=O)Nc1nnc(SCc2cc(=O)c3ccccc3[nH]2)s1 | inactive: -3.22% |

| SMILES | activity change, negative = inhibition |
| --- | --- |
| COCCNC(=O)CSc1nc2cc3c(cc2c(=O)n1CCCC(=O)NCCc1ccc(OC)c(OC)c1)OCO3 | inactive: -4.71% |
| CCC(C)(C)NC(=O)C1CCC(CNS(=O)(=O)c2ccc3c(c2)CC(C)N3C(C)=O)CC1 (configuration not stated) | inactive: -19.2% |
| Cc1ccc(Cl)cc1N1CCN(C2(c3ccccc3)C(=O)c3ccccc3C2=O)CC1 | inactive: -8.85% |
| COc1cccc(NC(=O)Cn2c(=O)n(-c3cccc(OC)c3)c(=O)c3sc4ccccc4c32)c1 | inactive: -10.1% |
| CCOCCCNC(=O)CN1C(=O)c2cccnc2Sc2ccccc21 | inactive: 8.22% |
| CCCCNC(=O)CCCN1C(=O)CCn2nc(-c3cccn3C)cc21 | inactive: -0.594% |
| Fc1ccccc1N1CCN(c2nnc(C(F)(F)F)c3nnn(Cc4ccccc4)c23)CC1 | inactive: 4.83% |
| O=C(Cn1c(SCCOc2ccccc2Cl)nc2ccccc21)N1CCOCC1 | inactive: 1.79% |
| COc1ccc2c(CNCc3ccco3)c(C(=O)O)n(Cc3ccc(F)cc3Cl)c2c1 | inactive: -1.81% |
| CCc1ccc(NC(=O)CSc2nc(-c3ccccc3)no2)cc1 | inactive: -5.76% |
| COc1ccc(CCNc2ncnc3c2nnn3C)cc1OC | inactive: -7.78% |
| CN(C)S(=O)(=O)N(CC(=O)Nc1ccc(Br)cc1F)c1ccccc1 | inactive: -7.97% |
| COc1ccccc1Cn1ccn(CC(=O)Nc2c(C)cc(C)cc2C)c(=O)c1=O | inactive: 7.74% |
| CC(C)C(=O)NC1CC(=O)N(c2ccc3c(c2)OCCO3)C1 (configuration not stated) | inactive: -0.0162% |
| Cc1nnc(N2CCN(c3ccc(Cl)cc3)CC2)c2c1nnn2Cc1ccc(F)cc1 | inactive: 2.83% |
| COc1cccc(C(c2sc3nc(-c4ccco4)nn3c2O)N2CCCC2)c1 (configuration not stated) | inactive: 2.64% |
| Cc1ccc(-n2nc(C)c3c(C)cc(=O)n(CC(=O)Nc4ccc(C(C)C)cc4)c32)cc1 | inactive: 16.3% |
| COc1ccc(NC(=O)c2c(NCc3cccs3)sc3c2CCCCC3)cc1 | inactive: -8.92% |
| CN(C1CCCCC1)S(=O)(=O)c1ccc(F)c(C(=O)Nc2ccc(C(F)(F)F)cc2)c1 | inactive: 9.78% |
| Cc1c(C(=O)Nc2cccc(F)c2)sc2nc(-c3cc4ccccc4oc3=O)[nH]c(=O)c12 | inactive: 5.37% |
| CC1CCCCN1C(=O)c1ccc2c(c1)N(Cc1ccc(Cl)cc1)C(=O)c1ccccc1S2=O (configuration not stated) | inactive: -0.29% |

| SMILES | activity change, negative = inhibition |
| --- | --- |
| COc1cc(OC)cc(C(=O)NCCc2csc(-c3cccc(C)c3)n2)c1 | inactive: -29.9% |
| CCc1ccc(NC(=O)C(=O)NCCc2sc(-c3ccc(OC)c(OC)c3)nc2C)cc1 | inactive: -0.0275% |
| O=C(NCc1ccccc1Cl)c1ccc2c(c1)N(Cc1ccccc1)C(=O)c1ccccc1S2 | inactive: 0% |
| CCOC(=O)c1[nH]c2ccccc2c1NC(=O)c1c(F)cccc1F | inactive: -27.3% |
| CCOC(=O)c1sc2ncn(CC(=O)Nc3cccc(C)c3)c(=O)c2c1C | inactive: -27.2% |
| COc1cccc(OCCCn2c(-c3ccc(Cl)cc3)nc3ccccc3c2=O)c1 | inactive: 0.0932% |
| CCc1cccc(NC(=O)c2cc(-c3ccccc3)n[nH]2)c1 | inactive: -6.38% |
| O=C(Nc1cccc(Cl)c1)C1CCN(c2nc3ccccc3nc2C(F)(F)F)CC1 | inactive: 5.08% |
| CCCCNC(=O)c1cnc2sc(N3CCCCC3)nn2c1=O | inactive: 6.59% |
| Cc1ccccc1Cn1c(=O)n(Cc2ccco2)c(=O)c2oc3ccccc3c21 | inactive: 3.45% |
| O=C(c1ccc2c(c1)CCN2S(=O)(=O)c1ccc(Cl)cc1)N1CCN(c2ccccc2F)CC1 | inactive: 1.82% |
| CN(C)c1ccc(CN2CCc3nc(N4CCN(c5ccccn5)CC4)ncc3C2)cc1 | inactive: 0.231% |
| Cc1c(F)cccc1NS(=O)(=O)c1cccs1 | inactive: 1% |
| Cc1cc(OC(C)C(=O)N2CCN(CCc3ccccn3)CC2)ccc1Cl (configuration not stated) | inactive: -2.42% |
| Cc1nc2c(c(SCC(=O)Nc3ccccc3C(F)(F)F)n1)CCC2 | inactive: -15.2% |
| CC(C)N(Cc1ccccc1)C(=O)c1cc2ccc3cccnc3c2[nH]1 | inactive: 0.561% |
| CCOc1ccccc1N1CC(c2nc3ccccc3n2CCCOc2ccccc2)CC1=O (configuration not stated) | inactive: -2.09% |
| CCC(CC)C(=O)Nc1ccc(OCc2cc(=O)n3ccc(C)cc3n2)cc1 | inactive: 0% |
| CCOC(=O)C1CCN(C(=O)c2nn(-c3ccc(C)cc3)c(=O)c3c2c2ccccc2n3C)CC1 | inactive: -6.29% |
| Cc1ccccc1Nc1nnc(-c2ccc(C)c(S(=O)(=O)N3CCN(C)CC3)c2)c2ccccc12 | inactive: -13.1% |
